According to patent US20250304706A1 (Astellas, published 2025):

B1: BTE-0097 (bispecific antibody)
heavy: QVQLVESGGGVVQPGGSLRLSCAASGFTFSSYGMHWVRQAPGKGLEWVAVIWYDGRNKYYADSVKGRFTISRDNSKNTLYLQMNSLRAEDTAVYYCTRDHSGSGSYYIDYWGQGTLVTVSSASTKGPSVFPLAPSSKSTSGGTAALGCLVKDYFPEPVTVSWNSGALTSGVHTFPAVLQSSGLYSLSSVVTVPSSSLGTQTYICNVNHKPSNTKVDKKVEPKSCDKTHTCPPCPAPEAAGGPSVFLFPPKPKDTLMISRTPEVTCVVVDVSHEDPEVKFNWYVDGVEVHNAKTKPREEQYNSTYRVVSVLTVLHQDWLNGKEYKCKVSNKALAAPIEKTISKAKGQPREPQVYTLPPSRDELTKNQVSLSCAVKGFYPSDIAVEWESNGQPENNYKTTPPVLDSDGSFFLVSKLTVDKSRWQQGNVFSCSVMHEALHNHYTQKSLSLSPGK
light: EIAMTQSPATLSVSPGERATLSCRASQSVSSNLAWYQQKPGQAPRLLIYGASTRATGLPARFSGSGSGTEFTLTISSLQSEDFAVYYCQQYNNFWTFGQGTKVEIKRTVAAPSVFIFPPSDEQLKSGTASVVCLLNNFYPREAKVQWKVDNALQSGNSQESVTEQDSKDSTYSLSSTLTLSKADYEKHKVYACEVTHQGLSSPVTKSFNRGEC
scFv-Fc: EVQLVESGGGLIQPGGSLRLSCAASGFTFNTYAMNWVRQAPGKGLEWVARIRSKANNYATYYADSVKDRFTISRDDSKSTLYLQMNNLRAEDTAVYYCVRHGNFGNSYVSWFAYWGQGTLVTVSSGKPGSGKPGSGKPGSGKPGSQAVVTQEPSLTVSPGGTVTLTCRSSTGAVTTSNYANWVQQKPGQAPRGLIGGTNKRAPGTPARFSGSLLGDKAALTISGAQPEDEAEYYCALWYSNLWVFGGGTKVTVL[human IgG1 Fc with C220S L234A L235A P329A T366W (EU numbers) cut from this listing]
notes: anti-TSPAN8/anti-CD3
B2: BTE-0102 (bispecific antibody)
heavy: QVQLVESGGGVVQPGGSLRLSCAASGFTFSSYGMHWVRQAPGKGLEWVAVIWYDGRNKYYADSVKGRFTISRDNSKNTLYLQMNSLRAEDTAVYYCTRDHSGSGSYYIDYWGQGTLVTVSSASTKGPSVFPLAPSSKSTSGGTAALGCLVKDYFPEPVTVSWNSGALTSGVHTFPAVLQSSGLYSLSSVVTVPSSSLGTQTYICNVNHKPSNTKVDKKVEPKSCDKTHTCPPCPAPEAAGGPSVFLFPPKPKDTLMISRTPEVTCVVVDVSHEDPEVKFNWYVDGVEVHNAKTKPREEQYNSTYRVVSVLTVLHQDWLNGKEYKCKVSNKALAAPIEKTISKAKGQPREPQVYTLPPSRDELTKNQVSLSCAVKGFYPSDIAVEWESNGQPENNYKTTPPVLDSDGSFFLVSKLTVDKSRWQQGNVFSCSVMHEALHNHYTQKSLSLSPGK
light: EIAMTQSPATLSVSPGERATLSCRASQSVSSNLAWYQQKPGQAPRLLIYGASTRATGLPARFSGSGSGTEFTLTISSLQSEDFAVYYCQQYNNFWTFGQGTKVEIKRTVAAPSVFIFPPSDEQLKSGTASVVCLLNNFYPREAKVQWKVDNALQSGNSQESVTEQDSKDSTYSLSSTLTLSKADYEKHKVYACEVTHQGLSSPVTKSFNRGEC
scFv-Fc: EVQLVESGGGLIQPGGSLRLSCAASGFTFNTYAMNWVRQAPGKGLEWVARIRSKYNNYATYYADSVKDRFTISRDDSKSTLYLQMNNLRAEDTAVYYCVRHGNFGNSYVSWFDYWGQGTLVTVSSGKPGSGKPGSGKPGSGKPGSQAVVTQEPSLTVSPGGTVTLTCRSSTGAVTTSNYANWVQQKPGQAPRGLIGGTNKRAPGTPARFSGSLLGDKAALTISGAQPEDEAEYYCALWYSNLWVFGGGTKVTVL[human IgG1 Fc with C220S L234A L235A P329A T366W (EU numbers) cut from this listing]
notes: anti-TSPAN8/anti-CD3
B3: BTE-0099 (bispecific antibody)
heavy: QVQLVESGGGVVQPGGSLRLSCAASGFTFSSYGMHWVRQAPGKGLEWVAVIWYDGRNKYYADSVKGRFTISRDNSKNTLYLQMNSLRAEDTAVYYCTRDHSGSGSYYIDYWGQGTLVTVSSASTKGPSVFPLAPSSKSTSGGTAALGCLVKDYFPEPVTVSWNSGALTSGVHTFPAVLQSSGLYSLSSVVTVPSSSLGTQTYICNVNHKPSNTKVDKKVEPKSCDKTHTCPPCPAPEAAGGPSVFLFPPKPKDTLMISRTPEVTCVVVDVSHEDPEVKFNWYVDGVEVHNAKTKPREEQYNSTYRVVSVLTVLHQDWLNGKEYKCKVSNKALAAPIEKTISKAKGQPREPQVYTLPPSRDELTKNQVSLSCAVKGFYPSDIAVEWESNGQPENNYKTTPPVLDSDGSFFLVSKLTVDKSRWQQGNVFSCSVMHEALHNHYTQKSLSLSPGK
light: EIAMTQSPATLSVSPGERATLSCRASQSVSSNLAWYQQKPGQAPRLLIYGASTRATGLPARFSGSGSGTEFTLTISSLQSEDFAVYYCQQYNNFWTFGQGTKVEIKRTVAAPSVFIFPPSDEQLKSGTASVVCLLNNFYPREAKVQWKVDNALQSGNSQESVTEQDSKDSTYSLSSTLTLSKADYEKHKVYACEVTHQGLSSPVTKSFNRGEC
scFv-Fc: EVQLVESGGGLIQPGGSLRLSCAASGFTFNTYAMNWVRQAPGKGLEWVARIRSKYNNYATSYADSVKDRFTISRDDSKSTLYLQMNNLRAEDTAVYYCVRHGNFGNSYVSWFAYWGQGTLVTVSSGKPGSGKPGSGKPGSGKPGSQAVVTQEPSLTVSPGGTVTLTCRSSTGAVTTSNYANWVQQKPGQAPRGLIGGTNKRAPGTPARFSGSLLGDKAALTISGAQPEDEAEYYCALWYSNLWVFGGGTKVTVL[human IgG1 Fc with C220S L234A L235A P329A T366W (EU numbers) cut from this listing]
notes: anti-TSPAN8/anti-CD3
B4: BTE-0101 (bispecific antibody)
heavy: QVQLVESGGGVVQPGGSLRLSCAASGFTFSSYGMHWVRQAPGKGLEWVAVIWYDGRNKYYADSVKGRFTISRDNSKNTLYLQMNSLRAEDTAVYYCTRDHSGSGSYYIDYWGQGTLVTVSSASTKGPSVFPLAPSSKSTSGGTAALGCLVKDYFPEPVTVSWNSGALTSGVHTFPAVLQSSGLYSLSSVVTVPSSSLGTQTYICNVNHKPSNTKVDKKVEPKSCDKTHTCPPCPAPEAAGGPSVFLFPPKPKDTLMISRTPEVTCVVVDVSHEDPEVKFNWYVDGVEVHNAKTKPREEQYNSTYRVVSVLTVLHQDWLNGKEYKCKVSNKALAAPIEKTISKAKGQPREPQVYTLPPSRDELTKNQVSLSCAVKGFYPSDIAVEWESNGQPENNYKTTPPVLDSDGSFFLVSKLTVDKSRWQQGNVFSCSVMHEALHNHYTQKSLSLSPGK
light: EIAMTQSPATLSVSPGERATLSCRASQSVSSNLAWYQQKPGQAPRLLIYGASTRATGLPARFSGSGSGTEFTLTISSLQSEDFAVYYCQQYNNFWTFGQGTKVEIKRTVAAPSVFIFPPSDEQLKSGTASVVCLLNNFYPREAKVQWKVDNALQSGNSQESVTEQDSKDSTYSLSSTLTLSKADYEKHKVYACEVTHQGLSSPVTKSFNRGEC
scFv-Fc: EVQLVESGGGLIQPGGSLRLSCAASGFTFNTYAMNWVRQAPGKGLEWVARIRSKYNNYATYYADSVKDRFTISRDDSKSTLYLQMNNLRAEDTAVYYCVRHGNFGNDYVSWFAYWGQGTLVTVSSGKPGSGKPGSGKPGSGKPGSQAVVTQEPSLTVSPGGTVTLTCRSSTGAVTTSNYANWVQQKPGQAPRGLIGGTNKRAPGTPARFSGSLLGDKAALTISGAQPEDEAEYYCALWYSNLWVFGGGTKVTVL[human IgG1 Fc with C220S L234A L235A P329A T366W (EU numbers) cut from this listing]
notes: anti-TSPAN8/anti-CD3
B5: BTE-0098 (bispecific antibody)
heavy: QVQLVESGGGVVQPGGSLRLSCAASGFTFSSYGMHWVRQAPGKGLEWVAVIWYDGRNKYYADSVKGRFTISRDNSKNTLYLQMNSLRAEDTAVYYCTRDHSGSGSYYIDYWGQGTLVTVSSASTKGPSVFPLAPSSKSTSGGTAALGCLVKDYFPEPVTVSWNSGALTSGVHTFPAVLQSSGLYSLSSVVTVPSSSLGTQTYICNVNHKPSNTKVDKKVEPKSCDKTHTCPPCPAPEAAGGPSVFLFPPKPKDTLMISRTPEVTCVVVDVSHEDPEVKFNWYVDGVEVHNAKTKPREEQYNSTYRVVSVLTVLHQDWLNGKEYKCKVSNKALAAPIEKTISKAKGQPREPQVYTLPPSRDELTKNQVSLSCAVKGFYPSDIAVEWESNGQPENNYKTTPPVLDSDGSFFLVSKLTVDKSRWQQGNVFSCSVMHEALHNHYTQKSLSLSPGK
light: EIAMTQSPATLSVSPGERATLSCRASQSVSSNLAWYQQKPGQAPRLLIYGASTRATGLPARFSGSGSGTEFTLTISSLQSEDFAVYYCQQYNNFWTFGQGTKVEIKRTVAAPSVFIFPPSDEQLKSGTASVVCLLNNFYPREAKVQWKVDNALQSGNSQESVTEQDSKDSTYSLSSTLTLSKADYEKHKVYACEVTHQGLSSPVTKSFNRGEC
scFv-Fc: EVQLVESGGGLIQPGGSLRLSCAASGFTFNTYAMNWVRQAPGKGLEWVARIRSKYNNYATEYADSVKDRFTISRDDSKSTLYLQMNNLRAEDTAVYYCVRHGNFGNSYVSWFAYWGQGTLVTVSSGKPGSGKPGSGKPGSGKPGSQAVVTQEPSLTVSPGGTVTLTCRSSTGAVTTSNYANWVQQKPGQAPRGLIGGTNKRAPGTPARFSGSLLGDKAALTISGAQPEDEAEYYCALWYSNLWVFGGGTKVTVL[human IgG1 Fc with C220S L234A L235A P329A T366W (EU numbers) cut from this listing]
notes: anti-TSPAN8/anti-CD3
B6: BTE-0100 (bispecific antibody)
heavy: QVQLVESGGGVVQPGGSLRLSCAASGFTFSSYGMHWVRQAPGKGLEWVAVIWYDGRNKYYADSVKGRFTISRDNSKNTLYLQMNSLRAEDTAVYYCTRDHSGSGSYYIDYWGQGTLVTVSSASTKGPSVFPLAPSSKSTSGGTAALGCLVKDYFPEPVTVSWNSGALTSGVHTFPAVLQSSGLYSLSSVVTVPSSSLGTQTYICNVNHKPSNTKVDKKVEPKSCDKTHTCPPCPAPEAAGGPSVFLFPPKPKDTLMISRTPEVTCVVVDVSHEDPEVKFNWYVDGVEVHNAKTKPREEQYNSTYRVVSVLTVLHQDWLNGKEYKCKVSNKALAAPIEKTISKAKGQPREPQVYTLPPSRDELTKNQVSLSCAVKGFYPSDIAVEWESNGQPENNYKTTPPVLDSDGSFFLVSKLTVDKSRWQQGNVFSCSVMHEALHNHYTQKSLSLSPGK
light: EIAMTQSPATLSVSPGERATLSCRASQSVSSNLAWYQQKPGQAPRLLIYGASTRATGLPARFSGSGSGTEFTLTISSLQSEDFAVYYCQQYNNFWTFGQGTKVEIKRTVAAPSVFIFPPSDEQLKSGTASVVCLLNNFYPREAKVQWKVDNALQSGNSQESVTEQDSKDSTYSLSSTLTLSKADYEKHKVYACEVTHQGLSSPVTKSFNRGEC
scFv-Fc: EVQLVESGGGLIQPGGSLRLSCAASGFTFNTYAMNWVRQAPGKGLEWVARIRSKYNNYATYYADSVKDRFTISRDDSKSTLYLQMNNLRAEDTAVYYCVRHGNFGNEYVSWFAYWGQGTLVTVSSGKPGSGKPGSGKPGSGKPGSQAVVTQEPSLTVSPGGTVTLTCRSSTGAVTTSNYANWVQQKPGQAPRGLIGGTNKRAPGTPARFSGSLLGDKAALTISGAQPEDEAEYYCALWYSNLWVFGGGTKVTVL[human IgG1 Fc with C220S L234A L235A P329A T366W (EU numbers) cut from this listing]
notes: anti-TSPAN8/anti-CD3

The binders below were run against T1, CD3εδ complex protein (human; alpaca, UniProt P07766 23-126; P04234 22-105) (assay: ELISA, CD3 complex immobilized).
UniProt P07766, sequence (P07766 23-126 limits assumed, stated change not applied, form in doubt, chain 1 of 2): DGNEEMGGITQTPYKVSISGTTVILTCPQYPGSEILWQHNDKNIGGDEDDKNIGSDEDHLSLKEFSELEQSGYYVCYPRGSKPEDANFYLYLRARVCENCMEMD
UniProt P07766, sequence (P04234 22-105 limits assumed, stated change not applied, form in doubt, chain 2 of 2, further chain): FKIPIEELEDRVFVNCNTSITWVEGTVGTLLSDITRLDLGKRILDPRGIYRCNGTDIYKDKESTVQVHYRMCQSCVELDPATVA
T1 construct: they are not part of the secreted protein; also called human CD3; CD386 complex protein
Method in brief: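 Bispecific anti-TSPAN8/anti-CD3 antibodies bound to immobilized CD3εδ complex protein in ELISA, detected with HRP anti-human IgG Fc and TMB absorbance. EC50 from a four-parameter variable-slope fit, top fixed at plate maximum and bottom at blank; reference antibody averaged across plates.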
B1 was tested, and the EC50 was 0.0308 mg/L.
Work on B2 yielded an EC50 of 0.77 mg/L.
Work on B3 yielded an EC50 of 0.0682 mg/L.
In the case of B4, the EC50 is reported as 0.113 mg/L.
B5 was tested, and the EC50 was 0.438 mg/L.
With B6 the EC50 was 0.247 mg/L.
